The results in this text go back to article PMC4336329 (PLoS ONE, 2015).

In all, about 310,000 compounds went through this assay and about 2,200 (0.71%) showed an effect of 50% or more. The effect is printed as a negative number. This is one part of the list.

The target in this experiment is human ether-à-go-go-related gene (hERG) potassium channel (human, UniProt Q12809). Description: primary screen, population patch clamp on CHO cells stably expressing hERG.
Chain of human ether-à-go-go-related gene (hERG) potassium channel (Q12809 whole entry, looked up): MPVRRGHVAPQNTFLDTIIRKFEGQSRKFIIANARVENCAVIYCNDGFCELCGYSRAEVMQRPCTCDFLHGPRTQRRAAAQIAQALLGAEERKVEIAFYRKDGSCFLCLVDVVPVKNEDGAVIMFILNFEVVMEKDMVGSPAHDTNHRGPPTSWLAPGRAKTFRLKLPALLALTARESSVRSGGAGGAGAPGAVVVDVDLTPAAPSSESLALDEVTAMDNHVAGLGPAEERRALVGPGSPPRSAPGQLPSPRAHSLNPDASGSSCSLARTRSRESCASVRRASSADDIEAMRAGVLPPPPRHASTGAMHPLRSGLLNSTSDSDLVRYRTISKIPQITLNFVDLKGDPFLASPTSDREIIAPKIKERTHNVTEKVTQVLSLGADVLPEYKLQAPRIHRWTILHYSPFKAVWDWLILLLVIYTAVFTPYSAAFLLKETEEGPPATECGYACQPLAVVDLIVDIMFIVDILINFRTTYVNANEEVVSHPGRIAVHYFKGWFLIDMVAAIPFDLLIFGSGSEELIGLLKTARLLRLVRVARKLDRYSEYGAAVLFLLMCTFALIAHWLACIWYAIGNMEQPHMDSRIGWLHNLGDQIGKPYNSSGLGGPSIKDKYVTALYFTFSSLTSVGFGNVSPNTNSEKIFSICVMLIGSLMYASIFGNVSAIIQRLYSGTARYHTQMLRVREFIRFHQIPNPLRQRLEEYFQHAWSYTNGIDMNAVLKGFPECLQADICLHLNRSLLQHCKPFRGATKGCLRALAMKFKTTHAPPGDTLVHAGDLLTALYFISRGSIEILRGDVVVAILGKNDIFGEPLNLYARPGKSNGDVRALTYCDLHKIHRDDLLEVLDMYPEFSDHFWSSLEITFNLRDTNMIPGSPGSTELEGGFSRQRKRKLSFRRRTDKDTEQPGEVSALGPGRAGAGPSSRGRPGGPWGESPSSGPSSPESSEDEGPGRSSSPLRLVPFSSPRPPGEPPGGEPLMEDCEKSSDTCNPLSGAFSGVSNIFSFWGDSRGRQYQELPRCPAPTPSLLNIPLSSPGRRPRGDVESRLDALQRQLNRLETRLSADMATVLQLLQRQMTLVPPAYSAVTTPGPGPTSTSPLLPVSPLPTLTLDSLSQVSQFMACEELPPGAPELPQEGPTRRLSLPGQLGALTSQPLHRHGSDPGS
For `O=C(COc1ncnc2ccc(Br)cc12)NCc1ccco1`, the “hERG current change (%, negative = inhibition) at 1uM” value was determined as 12.3%.
Take `Cn1cccc1Cc1nnc(SCC(=O)NCC2CCCO2)n1CCc1ccccc1` (stereo not shown): the “hERG current change (%, negative = inhibition) at 1uM” value was -4.06%.
Consider `NC(=O)COC(=O)[C@@H]1CC(O)CN1S(=O)(=O)c1ccc2c(c1)OCCO2` (stereo partly shown), for which the “hERG current change (%, negative = inhibition) at 1uM” value amounted to 13.8%.
Regarding `Cc1ccc(C(=O)Nc2nc(COc3ccccc3)cs2)s1`, the “hERG current change (%, negative = inhibition) at 1uM” value was found to be 14.3%.
Next, `Cc1c(-c2ccccc2)nc(N)c(C#N)c1-c1ccco1`: 9.86%.
Turning to `CC(=O)Nc1nonc1NC(=O)CSc1ncn[nH]1`, the “hERG current change (%, negative = inhibition) at 1uM” value is reported as -8.64%.
For `NC(=O)c1cc([N+](=O)[O-])ccc1NCc1ccc(C(=O)O)cc1` the value was 16.9%; for `CCCc1nc2ccccc2c(C(=O)OCC(=O)c2ccc3c(c2)NC(=O)CO3)c1CC`, 11.4%; for `COC(=O)[C@H]1[C@H](CCc2ccccc2)NC(=O)N(Cc2ccccc2)[C@@H]1C`, 3.72%.
Next, `O=P(O)(O)c1ccccc1OCCOCCOCCOCCOc1ccccc1P(=O)(O)O`: 12.7%; `NC(=O)C1CCN(C(=S)c2ccc(-c3ccc(Br)cc3)o2)CC1`: -0.415%; `CC(=O)Nc1ccc(S(=O)(=O)N(C)CC(=O)OCC(=O)c2cc(C)n(-c3ccc4c(c3)OCO4)c2C)cc1`: 8.05%.
As to `CCOC(=O)C(C)Sc1nnc(-c2c[nH]c3ccccc23)n1C` (stereo not shown), the “hERG current change (%, negative = inhibition) at 1uM” value is 12.4%.
For `COc1c(Cl)cc(Cl)cc1CNCCNCC(C)O.Cl` (stereo not shown) the value was 5.98%; for `CCOC(=O)c1cccc(NC(=S)NCc2ccc(C)cc2)c1`, 8.34%; for `Cc1cccc(NC(=O)Cn2c(=O)oc3ccccc32)n1`, 10.5%.
Next, `COc1ccc(Cc2nnc(SCC(=O)NCC3CCCO3)o2)cc1` (stereo not shown): 19%.
In the case of `COc1ccc(OCCC(=O)Nc2ccccc2)cc1`, the “hERG current change (%, negative = inhibition) at 1uM” value turned out to be 14.4%.
Next, `N#Cc1cc2c(nc1SCC(=O)Nc1sc3c(c1C#N)CCC3)CCCC2`: 11.7%.
Turning to `CC1CN(c2snnc2C=C2C(=O)OC(C)(C)OC2=O)CC(C)O1` (stereo not shown), the “hERG current change (%, negative = inhibition) at 1uM” value was 8.26%.
Next, `N#C/C(=C\c1ccc(Cl)cc1)c1nc(-c2ccco2)cs1`: 20%.
For `CN(C)CCN(C(=O)/C=C/c1cccs1)c1nc2c(F)cc(F)cc2s1.Cl` the value was 1.5%.
Next, `CCC(C)(C)n1nnnc1C(c1cccnc1)N1CCCC(C)C1` (stereo not shown): 9.87%.
`O=C(/C=C/c1cccc(Br)c1)c1ccc2c(c1)OCO2`: the “hERG current change (%, negative = inhibition) at 1uM” value turned out to be 11%.
In the case of `COc1cc2c(c(OC)c1OC)-c1c(cc3c(c1O)OCO3)C[C@@H](C)[C@@H](C)C2`, the “hERG current change (%, negative = inhibition) at 1uM” value came out at 3.97%.
`O=C(c1ccc2c(c1)OCO2)N1CCN(c2ccccc2)CC1`: the “hERG current change (%, negative = inhibition) at 1uM” value is reported as -0.777%.
Next, `COc1ccc(-n2c(C)cc(C(=O)CN3CCCCC3)c2C)cc1`: 2.5%; `CC(C)CC1(C)NC(=O)N(CC(=O)N2C(C)CCCC2C)C1=O` (stereo not shown): 6.04%.
As for `Cn1ccnc1SCC(=O)Nc1cccc(O)c1`, the “hERG current change (%, negative = inhibition) at 1uM” value is listed as 1.9%.
For `NC(=O)COc1ccc(NS(=O)(=O)Cc2ccccc2)cc1` the value was 19.2%; for `O=C(CSc1ccc(-c2ccccn2)nn1)Nc1cccc(F)c1`, 11.1%; for `CC(C)c1ccc(S(=O)(=O)Nc2ccc(N3CCOCC3)cc2)cc1`, 11.8%.
In the case of `COc1ccc(CCN(Cc2nc3ccccc3c(=O)[nH]2)C(=O)c2ccco2)cc1OC`, the “hERG current change (%, negative = inhibition) at 1uM” value is 9.1%.
Next, `COc1ccc2cc(Br)ccc2c1CC(=O)NC(C)C`: 14.5%; `O=C(NNC(=O)c1ccc2c(c1)OCO2)NC12CC3CC(CC(C3)C1)C2`: 3.5%.
For `CC(C)COCc1ccc(O)c2ncccc12` the value was 21.6%; for `c1ccc(Cn2cc(CSc3ccccc3)nn2)cc1`, 5.07%; for `CO/N=C/NC(=O)Cc1cn(-c2ncc(C(F)(F)F)cc2Cl)c2ccccc12`, 8.29%.
Next, `O=C1N[C@@H](Cc2cn(S(=O)(=O)c3c(F)c(F)c(F)c(F)c3F)c3ccccc23)C(=O)N[C@H]1Cc1ccccc1`: 10.7%; `Cc1oc(C(C)(C)C)cc1C(=O)Nc1ccc2c(c1)OCCO2`: 10.4%.
For the molecule `COc1ccccc1OCc1ccc(C(=O)N2CCCCC2)o1`, the “hERG current change (%, negative = inhibition) at 1uM” value was 7.6%.
Next, `O=C(CN1CCN(Cc2ccccc2)CC1)N1CCCc2c1c(=O)oc1ccc(O)cc21`: -8.78%; `O=C(CN(Cc1ccco1)C(=O)c1nsc(Cl)c1Cl)NC1CCCCC1`: 18.3%.
For `Cc1ccccc1NC(=O)n1ncc2cc(Cl)ccc21`, the “hERG current change (%, negative = inhibition) at 1uM” value is reported as 19.7%.
As for `COc1ccc(CCNC(=O)CCC(=O)NC2CCCC(C)C2C)cc1OC` (stereo not shown), the “hERG current change (%, negative = inhibition) at 1uM” value is listed as 18.3%.
With `CC(C)(C)n1nnnc1CN(Cc1cccnc1)Cc1ccccc1Cl`, the “hERG current change (%, negative = inhibition) at 1uM” value is reported as -18.2%.
Turning to `O=C(CSc1nnc(-c2ccccc2Br)o1)Nc1cccc2ccccc12`, the “hERG current change (%, negative = inhibition) at 1uM” value is recorded as 3.82%.
For the molecule `COc1ccccc1C(=O)Nc1ccc(S(=O)(=O)N2CCN(C)CC2)cc1`, the “hERG current change (%, negative = inhibition) at 1uM” value amounted to 7.4%.
Next, `COCC(C)NC(=O)c1cc(-c2ccc(O)cc2)on1` (stereo not shown): 11%.
Next, `Cc1ccc(F)cc1NC(=O)CSc1ncccn1`: 12.9%; `C=CCN1C(=O)C(Cc2ccc(F)cc2)S/C1=N/N=C/c1ccco1` (stereo not shown): 13.8%.
For `Cc1csc(NC(=O)c2ccc(C)c(S(=O)(=O)N3CCOCC3)c2)n1`, the “hERG current change (%, negative = inhibition) at 1uM” value was 11.1%.
For `COc1ccc(S(=O)(=O)N(CCc2ccccc2)CC(=O)N/N=C/c2ccc3c(c2)OCO3)cc1` the value was 1.44%; for `COc1cc(OC)c(OC)cc1/C=N/N(C)c1ccccc1`, 16.2%; for `COc1cc2c(cc1OC)CN(C(=O)c1ccc(S(=O)(=O)N3CCCCC3)cc1)CC2`, 14.1%.
Consider `COc1cccc(CC2(CO)CCCN(Cc3cn(C)c4ccccc34)C2)c1` (stereo not shown), for which the “hERG current change (%, negative = inhibition) at 1uM” value is -54.8%.
Next, `CCOC(=O)c1c(NC(=O)c2ccoc2C)sc(C)c1C`: 11.5%; `CC(C)C(C(=O)NCc1ccco1)N(C(=O)CNS(=O)(=O)c1ccccc1)c1ccccc1` (stereo not shown): 13.9%; `COCCNC(=O)c1oc2ccc3c(c2c1C)C(O)CC(C)(C)O3` (stereo not shown): 12.9%.
For `CCN(CC)CCNC(=O)NC(=O)c1ccc(Cl)cc1` the value was -11.7%; for `COc1ccc(CCC(=O)Nc2ccc(Br)cn2)cc1`, 2.97%; for `N/C(=N\OC(=O)c1ccc([N+](=O)[O-])cc1)c1ccccn1`, -7.93%.
For `CC(=O)c1ccc(OCCCC(=O)N2CCN(S(=O)(=O)c3ccc(C)cc3C)CC2)cc1` the value was -0.226%.
Turning to `O=C(CSc1ccccc1)NCc1ccccn1`, the “hERG current change (%, negative = inhibition) at 1uM” value came to 3.36%.
Next, `CC1(C)Cc2c(cnn2-c2ccccc2)-c2c1c1ccccc1n2CC(O)CBr` (stereo not shown): 7.39%.
Next, `Cc1nc(N2CCCCC2)sc1C(=O)c1ccc(Cl)c([N+](=O)[O-])c1`: 15.6%; `CC(C)CNC(=S)NC(=O)c1ccccc1Cl`: 5.66%.
With `CN(CC(=O)NC(=O)NCc1ccccc1)Cc1ccc(Cl)cc1`, the “hERG current change (%, negative = inhibition) at 1uM” value came out at 14.5%.
Turning to `CCOC(=O)C1(CCOc2ccccc2)CCN(Cc2cc(OC)c(O)c(OC)c2)CC1`, the “hERG current change (%, negative = inhibition) at 1uM” value is -66.6%.
As to `Cc1ccc(C)c(S(=O)(=O)N2CCN(Cc3ccc(O)c4ncccc34)CC2)c1`, the “hERG current change (%, negative = inhibition) at 1uM” value was 14.6%.
As for `Cc1nn(C)cc1CNC(=O)c1cccc(F)c1`, the “hERG current change (%, negative = inhibition) at 1uM” value is given as 8.64%.
For the molecule `COC(=O)N[C@H](CC(C)=O)c1cccc(C(F)(F)F)c1`, the “hERG current change (%, negative = inhibition) at 1uM” value was 17.9%.
For `CCCS(=O)(=O)N1CCCC(C(=O)NCC2CCCO2)C1` (stereo not shown), the “hERG current change (%, negative = inhibition) at 1uM” value worked out at 5.97%.
Next, `NS(=O)(=O)c1cccc(NC(=O)COC(=O)/C=C/c2ccco2)c1`: 7.3%.
For the molecule `COc1ccc(S(=O)(=O)N2CCCC2)cc1NC(=O)c1ccccc1F`, the “hERG current change (%, negative = inhibition) at 1uM” value amounted to 20.6%.
For `Cn1c(CO)cnc1SCc1c(Cl)cccc1Cl`, the “hERG current change (%, negative = inhibition) at 1uM” value is given as 6.9%.
Next, `CSC[C@@H]1NC(=S)N(c2ccc(C)cc2)C1=O`: 6.69%; `Cc1noc(C)c1C(=O)N(C)CC(=O)Nc1ccc(F)c(F)c1F`: 2.21%.
For `O=C(CCSc1ccccc1)NNC(=O)c1ccccc1F` the value was 14%; for `Cc1ccc(C(=O)COC(=O)CNC(=O)c2ccco2)cc1`, 13.3%; for `CC(Sc1ccccc1)C(=O)NN=C1CCN(C)CC1` (stereo not shown), 12%.
For `COC(=O)CCC(=O)OC1(C)C(=O)C2=CN(C3CCCC3)C(c3ccc(OC)cc3)=CC2=C(Br)C1=O` (stereo not shown) the value was -16.8%; for `CCOc1ccccc1N1CCN(C(=O)NCc2ccc(F)cc2)CC1`, 4.74%; for `Cc1c(C(=O)Nc2ccc(-c3nnc4n3CCCCC4)cc2)oc2c1ccc1ccccc12`, 11.1%.
With `C=CCn1c([O-])c(C(C)=O)c(=O)[nH]c1=O.C[NH+](C)C`, the “hERG current change (%, negative = inhibition) at 1uM” value stood at 8.55%.
For `CSCc1cc(N(C)C)nc(SCc2ccc(Cl)cc2Cl)n1`, the “hERG current change (%, negative = inhibition) at 1uM” value worked out at 12.2%.
Turning to `O=C(c1ccc(S(=O)(=O)N2CCCC2)cc1)N1CCCCC1`, the “hERG current change (%, negative = inhibition) at 1uM” value was found to be 10.8%.
Regarding `O=C(N=Nc1c(O)n(Cc2ccccc2)c2ccccc12)c1ccncc1`, the “hERG current change (%, negative = inhibition) at 1uM” value was 6.56%.
Next, `CN1CC(=O)Nc2ccc(Br)cc2C1=O`: 15.5%; `N=c1oc2cc(O)ccc2cc1C(=O)Nc1nc2ccccc2s1`: 13.4%.
Next, `Cc1nc(C(=O)N/N=C/c2[nH]ncc2Br)cs1`: 9.54%.
